In all, about 33,000 sequences were measured (“E-score (dimensionless, -0.5 to 0.5)”: median about -0.058, highest 2% from about 0.35 on). This is one part of the list.
Test system: MvaT
Assay: PBM 8-mer E-score (mean of HK and ME arrays) (E-score (dimensionless, -0.5 to 0.5)); higher = stronger relative binding preference; most listed sequences are background and not binding sites
Procedure, shortened: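 Full-length P. aeruginosa MvaT carrying an N-terminal glutathione S-transferase tag was tested by protein binding microarray following a previously described protocol. Two universal double-stranded 60-mer arrays, ME and HK, were used, each with a constant 25-mer primer region and a variable 35-mer region covering all 8-mers. The rank-based E-score is the mean of the two arrays, parsed with a custom script. Its range runs from -0.5 to 0.5 for each 8-mer.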

Sequence	PBM 8-mer E-score
CCGCAGGA	-0.0944
ACCGAAGC	-0.0986
ATCGCGCG	0.0315
ACGAAGGC	-0.28
ACGCCTCT	-0.21
CGCCGATA	0.0735
GATCATCA	-0.0598
AGGCGACC	-0.224
GCCAGCCC	-0.335
CCGTAAAC	-0.104
CCATGGAC	-0.187
ACAGAAGT	0.106
ATCGATCA	0.204
TCACCTGA	-0.083
TGTGTTAA	0.312
AGCGAGGG	-0.261
CGAAAGAA	0.0883
AGTGCGAC	-0.0683
ACCCGAGG	-0.137
TACTGGGA	-0.00513
CTCGTTGC	-0.187
CCATTATA	0.302
ATGGTTTA	0.261
GCAGGAAC	-0.303
CTATGACA	-0.109

Sequence	PBM 8-mer E-score
ATACATGC	0.172
CGCGTTCA	-0.0736
CATGCCGG	-0.161
GTACAACA	0.176
GTACACAA	0.00256
AACAGAAA	0.254
ACGATGGC	-0.12
CGTCTTGA	-0.0993
AATTATCC	0.296
ACATGGTA	-0.00482
CCACCGAA	-0.15
ATTCATGA	0.148
ATCAAAGG	-0.0951
ATGAGACC	-0.178
CAAGGGCA	-0.18
ACGCCATC	-0.248
GCGGGCCA	-0.32
ATGGCCAA	0.00263
GTGTAATA	0.342
TACATTAA	0.38
AGATTTAG	-0.00309
CTCTTGTC	-0.162
GAATAGTA	0.229
CGTATCCA	-0.0187
GAAATGTC	0.0435

Sequence	PBM 8-mer E-score
AAGATTGA	0.0199
AGTAAATC	0.0898
GGATAAGA	0.0379
AACACGCC	-0.0824
CACTCCCG	-0.258
CGGACAAG	-0.281
CAAACCCA	0.0185
GAGCGACC	-0.23
CTAAGAAG	-0.123
ATCGTCAA	0.0361
CACCTTAG	-0.171
ATCGTTGA	-0.102
AGCATTAG	-0.0543
AAACGGTA	-0.0714
CTCTCTGC	-0.243
ACCCACGT	-0.138
GCTCTTTA	0.117
ACATTTAT	0.336
ATGACGAG	0.0346
ATAAATGG	0.14
CGGGATTA	0.00532
ACGGACTC	-0.223
GCAACCCC	-0.264
ACTGAGAA	0.0967
TAGATGGA	-0.0217

Sequence	PBM 8-mer E-score
GAGTCCGC	-0.237
CACGGAAA	-0.113
ATCACAAT	0.079
TCCACGCA	-0.208
ACGTGACG	-0.268
CTAGCAAC	-0.0993
GGACGCAC	-0.112
GTAGAATA	0.123
CAGCTCGG	-0.199
ACACGAAT	0.142
GTATCGGA	-0.056
ACTACCGA	0.0612
ATTCCGCG	0.132
AATATGAA	0.329
CTGCCTGA	-0.114
AAGCCAGA	-0.116
AACCTAAT	0.11
CCTCCTAG	-0.176
AGGACTGG	-0.0983
GTGACATA	0.203
CTCCAGAG	-0.211
GGTCGCGA	-0.238
AGGGTGCC	-0.245
ATAGTCAA	0.165
AATTCAAA	0.282

Sequence	PBM 8-mer E-score
ACCAAGGG	-0.281
GGGTGTAA	0.122
CACAAAGG	-0.23
AGCAGACA	-0.107
ACGGACAT	-0.0651
CCCACTGA	-0.146
CCACAGCC	-0.177
CCCAGTCC	-0.254
TCATCGGA	-0.0792
TCGGGGCA	-0.000178
ACATTTTC	0.2
GACCTCCC	-0.251
TAGGATAA	0.226
CGCTAACC	-0.123
ATCGTCAC	-0.196
GTGCTTAA	0.181
CCAGAAGG	-0.21
ACAACTAA	0.288
ACTGACAA	0.122
GCAAGTCA	-0.0193
GGACATGA	-0.188
ATCCTAAA	0.151
ACCTAATA	0.308
AAGACGCA	-0.14
AGTTTTAG	0.162

Sequence	PBM 8-mer E-score
GTTACTTA	0.282
GCGCCCGA	-0.32
TAGCGACA	-0.11
CACCAGAG	-0.114
AGCTCCAC	-0.0774
AAATAAGG	0.322
GGTATAAC	0.226
ATCGGCGC	-0.104
ACGCCTCA	-0.121
GCATTAAC	0.114
AGGAAGAC	-0.127
ACACGATG	-0.0978
AGATGCTC	-0.0886
CAGTGGCG	-0.222
GTAGGCCA	-0.262
CGTCCCAG	-0.236
ACGTGTTG	-0.0464
ACCGATGG	-0.195
AGCTATAC	0.144
GAAGTTGC	0.212
CGACATAA	0.117
CTCGCAGC	-0.11
GAGGGATC	-0.116
GAAGTTTA	0.304
AGTCGGCG	-0.257

Sequence	PBM 8-mer E-score
ACTCGTGC	-0.117
TAAGCAGA	-0.0986
CCAACGCA	-0.0901
CCCAACGA	-0.211
ACCTTAGT	0.0805
GACGACTC	-0.268
AGGACTCA	-0.199
AACCTGAC	-0.0368
AGACCTCA	-0.252
AGCTGAAA	0.00696
ATGGCTCA	-0.0273
AATGTCCT	-0.0592
AGGTACTC	-0.174
ACCTGCGG	-0.206
CACGATCA	-0.0135
CGCATGCC	-0.0174
AGCTGGAC	-0.285
AAAACTAC	0.191
GACTCTGC	-0.11
GGAATGTA	0.0473
CTACCTAA	-0.0191
AACAGGAT	0.121
GGGCCAAC	-0.115
CTTTGGCA	-0.138
AAAAGGAA	0.0508

Sequence	PBM 8-mer E-score
ACCGGACC	-0.11
CCAATGTC	-0.027
CATGTGAA	-0.0666
CATGGCTC	-0.0506
CCCAGGGC	-0.305
GGTCAAAA	-0.000251
GAAGACTA	0.0919
GATGGCCC	-0.31
GATAACAA	0.263
ACTAACGG	0.183
ATGGCGTA	-0.0349
GCTACTTA	0.142
GACTGAGA	-0.191
CTACTCCA	-0.00818
ACTCGCCT	-0.1
CATGGTGA	-0.154
GCGTCCCC	-0.142
AGGGTGGC	-0.217
CGCTCGAG	-0.0113
CTCCACGC	-0.183
CCCTAGTA	-0.0637
ACCGACCT	-0.197
GTTTGCGA	0.0744
CGCCGAAC	-0.073
TCACAAGA	0.0158

Sequence	PBM 8-mer E-score
ATGCGTAC	-0.152
CGCAGCCA	-0.253
CTACCAGA	-0.141
ACGACACA	-0.0679
ATAGCTCG	0.0113
GAGTGAGA	-0.0245
ATAGCCAT	-0.0374
AGTTGGGA	0.134
CTGATGAA	-0.0243
AACCTGTC	-0.231
ATTCGACC	-0.0894
CGCGTTCC	-0.173
TGTAATAA	0.399
GCCTATAC	-0.0364
AGATTCCT	0.00347
CCATTTGC	-0.0387
ACGAACCA	-0.253
CAAGTAAG	0.177
CAGCGAGG	-0.237
